Assay results reported in the supplement of paper PMC8728848.
The other results are listed elsewhere or left out.

Assays:
Assay in all cases: glycan array binding signal (z-score within array); higher = stronger binding
Conditions in all cases: glycan notation: IUPAC condensed, linker removed
[1] = target: Neu5Ac(a2-3)Gal(b1-4)[Fuc(a1-3)]GlcNAc(b1-3)Gal
In short: (§1)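 Glycan array binding is given as a within-array Z-score, which can be read as non-binding when negative. The arrays, 3228 of them, came from the Consortium for Functional Glycomics database and were retained only where the protein sequence was available. Z-scores were averaged across arrays of the same protein sequence at different concentrations or buffers and across linkers.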

[2] = target: Neu5Ac(a2-3)Gal(b1-4)[Fuc(a1-3)]GlcNAc(b1-3)Gal(b1-4)GlcNAc
In short: as §1

[3] = target: Neu5Ac(a2-3)Gal(b1-4)[Fuc(a1-3)]GlcNAc(b1-3)Gal(b1-4)[Fuc(a1-3)]GlcNAc(b1-3)Gal(b1-4)[Fuc(a1-3)]GlcNAc
In short: as §1

[4] = target: Neu5Ac(a2-3)Gal(b1-4)[Fuc(a1-3)]GlcNAc6S
In short: as §1

[5] = target: Neu5Ac(a2-3)Gal6S(b1-4)GlcNAc
In short: as §1

[6] = target: Neu5Ac(a2-3)Gal6S(b1-4)[Fuc(a1-3)]GlcNAc
In short: as §1

[7] = target: Neu5Ac(a2-3)GalNAc
In short: as §1

[8] = target: Neu5Ac(a2-3)GalNAc(b1-4)GlcNAc
In short: as §1

[9] = target: Neu5Ac(a2-3)[GalNAc(b1-4)]Gal(b1-4)Glc
In short: as §1

[10] = target: Neu5Ac(a2-3)[GalNAc(b1-4)]Gal(b1-4)GlcNAc
In short: as §1

[11] = target: Neu5Ac(a2-3)[Neu5Ac(a2-6)]GalNAc
In short: as §1

[12] = target: Neu5Ac(a2-6)Gal(b1-4)GlcNAc
In short: as §1

[13] = target: Neu5Ac(a2-6)Gal(b1-4)GlcNAc(b1-2)Man(a1-3)[Neu5Ac(a2-6)Gal(b1-4)GlcNAc(b1-2)Man(a1-6)]Man(b1-4)GlcNAc(b1-4)GlcNAc
In short: as §1

[14] = target: Neu5Ac(a2-6)Gal(b1-4)GlcNAc(b1-3)Gal(b1-4)GlcNAc
In short: as §1

[15] = target: Neu5Ac(a2-6)Gal(b1-4)GlcNAc(b1-3)Gal(b1-4)[Fuc(a1-3)]GlcNAc(b1-3)Gal(b1-4)[Fuc(a1-3)]GlcNAc
In short: as §1

[16] = target: Neu5Ac(a2-6)Gal(b1-4)GlcNAc6S
In short: as §1

[17] = target: Neu5Ac(a2-6)GalNAc
In short: as §1

[18] = target: Neu5Ac(a2-6)GalNAc(b1-4)GlcNAc
In short: as §1

[19] = target: Neu5Ac(a2-8)Neu5Ac
In short: as §1

[20] = target: Neu5Ac(a2-8)Neu5Ac(a2-3)Gal(b1-4)Glc
In short: as §1

[21] = target: Neu5Ac(a2-8)Neu5Ac(a2-3)[GalNAc(b1-4)]Gal(b1-4)Glc
In short: as §1

[22] = target: Neu5Ac(a2-8)Neu5Ac(a2-8)Neu5Ac
In short: as §1

[23] = target: Neu5Ac(a2-8)Neu5Ac(a2-8)Neu5Ac(a2-3)Gal(b1-4)Glc
In short: as §1

[24] = target: Neu5Ac(a2-8)Neu5Ac(a2-8)Neu5Ac(a2-3)[GalNAc(b1-4)]Gal(b1-4)Glc
In short: as §1

[25] = target: Neu5Ac(a2-8)Neu5Ac(a2-8)Neu5Ac(a2-8)Neu5Ac(a2-3)[GalNAc(b1-4)]Gal(b1-4)Glc
In short: as §1

[26] = target: Neu5Ac9Ac(a2-6)Gal(b1-4)GlcNAc
In short: as §1

[27] = target: Neu5Gc(a2-3)Gal(b1-3)GlcNAc
In short: as §1

[28] = target: Neu5Gc(a2-3)Gal(b1-3)[Fuc(a1-4)]GlcNAc
In short: as §1

[29] = target: Neu5Gc(a2-3)Gal(b1-4)Glc
In short: as §1

[30] = target: Neu5Gc(a2-3)Gal(b1-4)GlcNAc
In short: as §1

[31] = target: Neu5Gc(a2-3)Gal(b1-4)[Fuc(a1-4)]GlcNAc
In short: as §1

[32] = target: Neu5Gc(a2-6)Gal(b1-4)GlcNAc
In short: as §1

[33] = target: Neu5Gc(a2-6)GalNAc
In short: as §1

B1: Siglec 6 (Homo sapiens), O43699 (protein)
chain: MLPLLLPLLWAGALAQERRFQLEGPESLTVQEGLCVLVPCRLPTTLPASYYGYGYWFLEGADVPVATNDPDEEVQEETRGRFHLLWDPRRKNCSLSIRDARRRDNAAYFFRLKSKWMKYGYTSSKLSVRVMALTHRPNISIPGTLESGHPSNLTCSVPWVCEQGTPPIFSWMSAAPTSLGPRTTQSSVLTITPRPQDHSTNLTCQVTFPGAGVTMERTIQLNVSYAPQKVAISIFQGNSAAFKILQNTSSLPVLEGQALRLLCDADGNPPAHLSWFQGFPALNATPISNTGVLELPQVGSAEEGDFTCRAQHPLGSLQISLSLFVHWKPEGRAGGVLGAVWGASITTLVFLCVCFIFRVKTRRKKAAQPVQNTDDVNPVMVSGSRGHQHQFQTGIVSDHPAEAGPISEDEQELHYAVLHFHKVQPQEPKVTDTEYSEIKIHK
glycan array binding signal (z-score) [1]: -0.361
glycan array binding signal (z-score) [2]: -0.028
glycan array binding signal (z-score) [3]: -0.016
glycan array binding signal (z-score) [4]: -0.113
glycan array binding signal (z-score) [5]: -0.111
glycan array binding signal (z-score) [6]: -0.501
glycan array binding signal (z-score) [7]: -0.498
glycan array binding signal (z-score) [8]: -0.4
glycan array binding signal (z-score) [9]: -0.509
glycan array binding signal (z-score) [10]: -0.145
glycan array binding signal (z-score) [11]: -0.568
glycan array binding signal (z-score) [12]: -0.266
glycan array binding signal (z-score) [13]: -0.377
glycan array binding signal (z-score) [14]: -0.476
glycan array binding signal (z-score) [15]: -0.216
glycan array binding signal (z-score) [16]: -0.044
glycan array binding signal (z-score) [17]: -0.389
glycan array binding signal (z-score) [18]: -0.157
glycan array binding signal (z-score) [19]: 0.187
glycan array binding signal (z-score) [20]: -0.16
glycan array binding signal (z-score) [21]: 0.09
glycan array binding signal (z-score) [22]: -0.276
glycan array binding signal (z-score) [23]: -0.541
glycan array binding signal (z-score) [24]: -0.466
glycan array binding signal (z-score) [25]: -0.598
glycan array binding signal (z-score) [26]: -0.211
glycan array binding signal (z-score) [27]: -0.386
glycan array binding signal (z-score) [28]: -0.488
glycan array binding signal (z-score) [29]: -0.162
glycan array binding signal (z-score) [30]: -0.551
glycan array binding signal (z-score) [31]: -0.201
glycan array binding signal (z-score) [32]: -0.078
glycan array binding signal (z-score) [33]: -0.532
